The subject of series [1] is biotinylated human pro-myostatin. Nature of the series: Biacore 8k SPR binding affinity, human pro-myostatin. An excerpt:
(§1) The Biacore™ 8 k SPR system was utilized to evaluate the binding affinity of myostatin antibodies to biotinylated human, murine, and cyno pro-myostatin. Biotin CAPture kit and sensor chips (Cytiva) were utilized in these experiments to immobilize the various antigens, followed by flowing a range of concentrations of each of the test antibodies.
On the technique in general: Surface plasmon resonance follows binding to a sensor surface in real time, without labels.

For series [2], the system named is biotinylated murine pro-myostatin. Nature of the series: Biacore 8k SPR binding affinity, murine pro-myostatin. Also on record: species or system mouse.
Text: as §1

Series [3] has as its system human pro-myostatin. Put plainly: SEC-MALS binding stoichiometry. As for the experimental part:
A combination of size exclusion chromatography and multi-angle light scattering (SEC-MALS) was used to determine the approximate mass and therefore the oligomeric state of the antibodies and their stoichiometry of binding to human promyostatin. The monoclonal antibody (mAb) or its Fab fragment was mixed with 50 μg of human pro-myostatin at a ratio of 1:1, 2:1 or 3:1 (antibody to antigen) for at least 24 hours at room temperature for immune complexes to form, filtered and injected into an analytical SEC column (Waters HPLC with a Superdex 200 10/300), flowed through a refractive index detector and then a miniDAWN® multi-angle light scattering detector to determine the mass. A full-length human-pro-myostatin with an N-terminal His6 tag (SEQ ID NO: 941) was used to express pro-myostatin in HEK cells. The signal peptide present in the construct is cleaved during biosynthesis. The resulting recombinant human pro myostatin was purified using the His6 tag (SEQ ID NO: 941) and used for the experiment.

Series [4] deals with dexamethasone-induced muscle atrophy in C57BL6 male mice. Nature of the series: Dexamethasone-induced muscle atrophy mouse model. The series is classed as in vivo. To be noted: for body weight of dexamethasone treated mice: 3 mg/kg/day, FIG. 6A, FIG. 9A. An excerpt: To evaluate in vivo efficacy of the novel myostatin-selective inhibitors disclosed herein, the ability of the antibodies to preserve lean muscle mass was examined in a dexamethasone-induced atrophy mouse model. An excess of glucocorticoids directly stimulates myostatin production via interactions with a glucocorticoid response element in the myostatin promoter, thus inducing loss of muscle mass. As shown herein, antibodies of the disclosure prevented glucocorticoid-induced muscle atrophy.
C57BL6 male mice (n=8) at 13-14 weeks of age were given normal drinking water or water containing dexamethasone at a concentration of 2.5 mg/kg (17.5 grams dexamethasone per liter of drinking water) to induce atrophy. […] Body weight was measured daily. Body composition was measured by qNMR to determine lean mass pre-dosing, at day 7, and at day 14. After 14 days of dexamethasone exposure, the animals were terminated, and body weight and gastrocnemius weight were measured. Terminal blood for each animal was also collected.
C57BL6 male mice (n=8) at 13-14 weeks of age were given normal drinking water or water containing dexamethasone at a concentration of 2.5 mg/kg to induce atrophy. Mice were dosed at day 1 and day 7 with vehicle (PBS), IgG control (“hIgG”) or different doses of the test antibodies, as shown in Table 13. Muscle mass at days −1, 6 and 13 was measured using qNMR. At the end of the study (day 14), serum from each animal was collected and changes in body weight, body composition (qNMR), left and right gastrocnemius weight, and left and right quadriceps weight were measured. Statistical analysis was performed by ANOVA (Dunnett's multiple comparison test).
In a third experiment, antibody doses ranging from 0.3 mg/kg to 10 mg/kg were compared for their effectiveness in attenuating dexamethasone-induced atrophy. C57BL6 male mice (n=8) at 13-14 weeks of age were given normal drinking water or water containing dexamethasone at a concentration of 2.5 mg/kg to induce atrophy. Mice were dosed at day 1 and day 7 with vehicle (PBS), human IgG control (“hIgG”) or different doses of the test antibodies, as shown in Table 14 below. qNMR was used to measure muscle mass at days-1, 6 and 13. At day 14 the study ended, serum was collected and changes in body composition (qNMR), left and right gastrocnemius weight, and left and right quadriceps weight were determined. Circulating myostatin was measured in the serum of a terminal bleed taken at day 14. Statistical analysis was performed by ANOVA (Dunnett's multiple comparison test).
In a fourth experiment, antibodies Ab109 and Ab133 were compared to control human IgG and Ab2 in the same protocol as described above.

Series [5] can be described thus: AC-SINS self-interaction (aggregation behavior). The settings on record: cutoff shift >5 nm in plasmon wavelength. The series is classed as physicochemical. As to the method:
The antibodies were tested for aggregation behavior by affinity capture self-interaction nanoparticle spectroscopy (AC-SINS). Gold nanoparticles were coated with polyclonal antibodies that are specific for human monoclonal antibodies and the monoclonal antibodies are captured by the conjugates. The polyvalency of the monoclonal antibody conjugates amplifies the attractive self-interactions, i.e., aggregation between the adsorbed antibodies. This leads to reduced inter-particle separation distances and is detected by a change in color of the gold colloid solution, which was quantified by a change in the wavelength of maximum absorbance (plasmon wavelength). Plasmon wavelength of 530 nm was used as the reported value for unaggregated gold nanoparticles. Antibodies with a tendency to self-aggregate shift the plasmon wavelength toward the red end of the spectrum. A shift of greater than 5 nm (i.e., >5 nm) in plasmon wavelength was used as the cutoff indicative of self-interacting antibodies.

The test system of series [6] is total myostatin in serum. Nature of the series: Circulating total myostatin in serum (acidification ELISA), dexamethasone model. To be noted: as compared to apitegromab. The series is classed as in vivo, mouse. The source says: Briefly, serum samples were acidified at low pH (e.g., pH ˜2.5) to dissociate the bound antibody from the immune complex and to convert all myostatin in the sample to the active form of growth factor (i.e., mature myostatin). Samples were then neutralized and assayed for the presence of mature myostatin on ELISA plates coated with anti-mature myostatin antibodies as capture reagents.
(In general: An ELISA detects its analyte on a solid surface through an enzyme-linked reagent.)

Where [7] appears, read: Fab fragment, input ratio Fab:pro-myostatin 2:1.
The mark [8] stands for this setting: Fab fragment, input ratio Fab:pro-myostatin 3:1.
Setting [9] is: full-length mAb, input ratio mAb:pro-myostatin 1:1.
Setting [10] is: full-length mAb, input ratio mAb:pro-myostatin 3:1.
[11] abbreviates: full-length mAb, input ratio mAb:pro-myostatin 1:1, peak 1.
Where [12] appears, read: full-length mAb, input ratio mAb:pro-myostatin 1:1, peak 2.

The Kd is the constant that tells how readily two partners part at equilibrium. Higher therefore signals weaker binding.

B1: Ab123: anti-pro/latent myostatin antibody; CDRs in Tables 2d-f, variable domains Table 3, chains Table 4 (antibody)
heavy: EVQLVESGGGLVQPGGSLRLSCAASGFTFSKYDMSWVRQAPGKGLELVASISSSGGTRYYPDSVKGRFTISRDNAKNSLYLQMNSLRAEDTAVYYCAKDLWVASPGYGMDVWGQGTTVTVSSASTKGPSVFPLAPCSRSTSESTAALGCLVKDYFPEPVTVSWNSGALTSGVHTFPAVLQSSGLYSLSSVVTVPSSSLGTKTYTCNVDHKPSNTKVDKRV[human IgG4 Fc with S228P (EU numbers) left out]
light: DIVMTQSPLSLPVTPGEPASISCRSSQSLLHSSGHNYLHWYLQKPGQSPQLLIYLGSIRAPGVPDRFSGSGSGTDFTLKISRVEAEDVGVYYCMQALLNPPTFGGGTKVEIKRTVAAPSVFIFPPSDEQLKSGTASVVCLLNNFYPREAKVQWKVDNALQSGNSQESVTEQDSKDSTYSLSSTLTLSKADYEKHKVYACEVTHQGLSSPVTKSFNRGEC
With B1, the “Ka” value in series [1] amounted to 1.38e+06 M⁻¹ s⁻¹; in series [2] it was 1.25e+06 M⁻¹ s⁻¹. In addition, the entries for the “Kd (1/s)” value in series [1] and in series [2] were 0.000543 s⁻¹ and 0.000772 s⁻¹, respectively. For the same molecule, the “SEC-MALS Result” value in series [3] (setting [7]) is on record as 141.2 kDa; in series [3] (setting [8]), 144.5 kDa; in series [3] (setting [9]) it was 236.1 kDa; in series [3] (setting [10]), 237.5 kDa. In series [4], the “body weight of dexamethasone treated mice” value was “maintained the body weight of the dexamethasone treated mice to a greater extent than Ab2”.

B2: Ab133: anti-pro/latent myostatin antibody; CDRs in Tables 2d-f, variable domains Table 3, chains Table 4 (antibody)
heavy: EVQLVESGGGLVQPGGSLRLSCAASGFTFSSYGMSWVRQAPGKGLELVASFTGSGGAYYPDSVKGRFTISRDNAKNSLYLQMNSLRAEDTAVYYCARDLLIRFLEWSHYYGMDVWGQGTTVTVSSASTKGPSVFPLAPCSRSTSESTAALGCLVKDYFPEPVTVSWNSGALTSGVHTFPAVLQSSGLYSLSSVVTVPSSSLGTKTYTCNVDHKPSNTKVDKRV[human IgG4 Fc with S228P (EU numbers) left out]
light: DIVMTQSPLSLPVTPGEPASISCRSSQSLLHSSGHNFLHWYLQKPGQSPQLLIYEVSNRVSGVPDRFSGSGSGTDFTLKISRVEAEDVGVYYCQQQTQYPGTFGGGTKVEIKRTVAAPSVFIFPPSDEQLKSGTASVVCLLNNFYPREAKVQWKVDNALQSGNSQESVTEQDSKDSTYSLSSTLTLSKADYEKHKVYACEVTHQGLSSPVTKSFNRGEC
For B2, the “Ka” value in series [1] was determined as 2.84e+06 M⁻¹ s⁻¹; in series [2], 3.01e+06 M⁻¹ s⁻¹. Further, the “Kd (1/s)” value in series [1] was found to be 0.000116 s⁻¹; in series [2], 0.000162 s⁻¹. Moreover, the “SEC-MALS Result” value in series [3] (setting [11]) worked out at 405 kDa; in series [3] (setting [12]), 302.9 kDa. Also, in series [5], the “aggregation behavior by AC-SINS” value was “did not display aggregation behavior”. Besides, the “body weight loss in dexamethasone treated mice” value in series [4] (doses 0.3-10 mg/kg on day 1 and day 7, dose as in the words, FIG. 7A, FIG. 10A) is “prevented dexamethasone-induced weight loss”. In addition, the “lean mass by qNMR in dexamethasone treated mice” value in series [4] (doses 0.3-10 mg/kg, dose as in the words, FIG. 7B, FIG. 10B) is recorded as “attenuated the loss of lean mass”. Further, in series [6], the “accumulation of total or latent myostatin in serum samples from dosed subjects” value is “reduced accumulation of circulating latent myostatin”.

B3: Ab105: anti-pro/latent myostatin antibody; CDRs in Tables 2d-f, variable domains Table 3, chains Table 4 (antibody)
heavy: EVQLVESGGGLVQPGGSLRLSCAASGSAFSSYGMSWVRQAPGKGLELVASIGGTGATYYPDSVKGRFTISRDNAKNSLYLQMNSLRAEDTAVYYCARDLLVRFLEWGHYYGMDVWGQGTTVTVSSASTKGPSVFPLAPCSRSTSESTAALGCLVKDYFPEPVTVSWNSGALTSGVHTFPAVLQSSGLYSLSSVVTVPSSSLGTKTYTCNVDHKPSNTKVDKRV[human IgG4 Fc with S228P (EU numbers) left out]
light: DIVMTQSPLSLPVTPGEPASISCRSSQSLLHSSGYNFLHWYLQKPGQSPQLLIYAASSRAPGIPDRFSGSGSGTDFTLKISRVEAEDVGVYYCMHGGQGPTFGGGTKVEIKRTVAAPSVFIFPPSDEQLKSGTASVVCLLNNFYPREAKVQWKVDNALQSGNSQESVTEQDSKDSTYSLSSTLTLSKADYEKHKVYACEVTHQGLSSPVTKSFNRGEC
Take B3: in series [1], the “Ka” value was determined as 4.89e+06 M⁻¹ s⁻¹ and the “Kd (1/s)” value is 0.000247 s⁻¹. For the same molecule, in series [2], the “Ka” value was 5.99e+06 M⁻¹ s⁻¹; the affinity, expressed as Kd, was 460 pM; the “Kd (1/s)” value was 0.000276 s⁻¹. In addition, in series [3] (setting [11]), the “SEC-MALS Result” value came out at 500 kDa. Also, in series [3] (setting [12]), the “SEC-MALS Result” value was determined as 298.9 kDa. For the same molecule, in series [5], the “aggregation behavior by AC-SINS” value was “did not display aggregation behavior”. Further, the “body weight of dexamethasone treated mice” value in series [4] is given as “maintained the body weight of the dexamethasone treated mice to a greater extent than Ab2”.

B4: Ab112: anti-pro/latent myostatin antibody; CDRs in Tables 2d-f, variable domains Table 3, chains Table 4 (antibody)
heavy: QVQLVQSGAEVKKPGASVKVSCKVSGGTFGIYAIHWVRQAPGKGLEWMGGTIPVFGTAIYAQKFQGRVTMTEDTSTDTAYMELSSLKSEDTAVYYCASLTGIAAAGTHPARGGMDVWGQGTTVTVSSASTKGPSVFPLAPCSRSTSESTAALGCLVKDYFPEPVTVSWNSGALTSGVHTFPAVLQSSGLYSLSSVVTVPSSSLGTKTYTCNVDHKPSNTKVDKRV[human IgG4 Fc with S228P (EU numbers) left out]
light: DIQMTQSPSSVSASVGDRVTITCRASPSISSYLAWYQQKPGKAPKLLIYAASRLQSGVPSRFSGSGSGTDFTLTISSLQPEDFANYYCQEYLSFPLTFGGGTKVEIKRTVAAPSVFIFPPSDEQLKSGTASVVCLLNNFYPREAKVQWKVDNALQSGNSQESVTEQDSKDSTYSLSSTLTLSKADYEKHKVYACEVTHQGLSSPVTKSFNRGEC
Consider B4, for which the figures for the “Ka” value in series [1] and in series [2] were 217000 M⁻¹ s⁻¹ and 251000 M⁻¹ s⁻¹, respectively. Also, the entries for the “Kd (1/s)” value in series [1] and in series [2] were 0.000122 s⁻¹ and 0.000188 s⁻¹, respectively. Besides, the “SEC-MALS Result” value in series [3] (setting [7]) is recorded as 176.9 kDa; in series [3] (setting [8]), 180.9 kDa; in series [3] (setting [9]), 2,519 kDa; in series [3] (setting [10]) it was 699.6 kDa. The “prevention of muscle atrophy in dexamethasone treated mice” value in series [4] (second experiment, Table 13) was “less effective in preventing muscle-induced atrophy than Ab109 and Ab127”.

(Values after US12338279B2, “Selective and potent inhibitory antibodies of myostatin activation” (SCHOLAR ROCK, INC., priority 2022, dated 2025).)
